Among all 310,000 compounds or so, about 18,000 (5.8%) were called active. Inconclusive means that the source gave no clear call. Such entries were picked first, then a sample of the others. Calls follow the shape of the dose curve; as a rule, active = well fitted inhibition curve with a large enough effect; inconclusive = small, poorly fitted or top-dose-only effect, or another doubt; inactive = no such curve, though single readings can be large or run the other way. Potencies of inconclusive entries are left out as doubtful fits.
Assay: Primary qHTS for delayed death inhibitors of the malarial parasite plastid, 48 hour incubation
Conditions: P. falciparum luciferase growth in erythrocytes; series mostly up to 28.7 µM
Summary of the method: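 Luciferase-expressing P. falciparum in infected erythrocytes (2% hematocrit, 0.1% parasitemia final) in RPMI 1640/0.5% Albumax were exposed to compound for 48 hours at 37 C, 5% CO2; growth read as luminescence.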
Potency is read from the fitted curve at half-maximal effect; tags tell the direction and shape of the fitted curve.

| SMILES | Potency |
| --- | --- |
| O=C(CCCN1C(=O)c2ccccc2C1=O)Nc1cccc(S(=O)(=O)NC2=NCCC2)c1 | inconclusive [inhibitor, full curve, poor fit] |
| COc1ccc(N2CCN(C(=O)CSc3nnc(Cn4nnc5ccccc54)n3C)CC2)cc1 | inconclusive [inhibitor, partial curve] |
| CCOc1ccc(N2C(=O)S/C(=C\c3cccn3C)C2=O)cc1 | active: 3.29 µM |
| CC(=O)Oc1ccc2c(=O)c(-c3ccccc3)c(C)oc2c1 | inconclusive [inhibitor, full curve, poor fit] |
| Cc1nn(CC(=O)NCCN2CCOCC2)c(=O)c2cc3sccc3n12 | inactive |
| Cc1cc(OCC(=O)N2CCc3ccccc3C2)c2c(-c3ccccc3)cc(=O)oc2c1 | inconclusive [inhibitor, single point] |
| O=C(Nc1ccccc1[N+](=O)[O-])C1(c2ccccc2)CCOCC1 | inactive |
| NC(=O)[C@@H]1CSSCCC(=O)N[C@@H](CCCCN=C(N)N)C(=O)NCC(=O)N[C@@H](CC(=O)O)C(=O)N[C@@H](Cc2c[nH]c3ccccc23)C(=O)N2CCC[C@H]2C(=O)N1 | inactive |
| CCCC(=O)NC(c1ccccc1OC)c1ccc2cccnc2c1O (stereo not given) | active: 1.65 µM |
| Nc1nc(-c2cccs2)cs1 | inactive |
| Cc1cccc(N2CCN(C(=O)CCC(=O)N3CC(C)Oc4ccccc43)CC2)c1C (stereo not given) | inconclusive [inhibitor, single point] |
| NC[C@@H]1O[C@H](C23CC4CC(CC(C4)C2)C3)Cc2c1ccc(O)c2O | active: 9.28 µM |
| S=C(Nc1ccc(CN2CCCCC2)cc1)Nc1cccc(Cl)c1Cl | inconclusive [inhibitor, partial curve] |
| O=c1nc(N/N=C/c2ccccn2)cn[nH]1 | active: 1.04 µM |
| Cc1ccc(N2C(=O)C(O)(C(F)(F)F)C3=C2CC(C)(C)CC3=O)cc1 (stereo not given) | inactive |
| CCN(CC)c1ccc(NC(=O)COc2ccccc2C#N)cc1S(=O)(=O)Nc1ccccc1OC | active: 1.65 µM |
| CN(C)NC(=S)NC(=O)C12CC3CC(CC(C3)C1)C2 | inconclusive [inhibitor, partial curve] |
| CS(=O)(=O)Nc1nnc(SCC(=O)N(c2ccccc2)c2ccccc2)s1 | inactive |
| N#Cc1ccccc1OCC(=O)NCC(c1ccc(F)cc1)N1CCOCC1 (stereo not given) | inconclusive [inhibitor, single point] |
| CCC(=O)Nc1cc(NC(=O)CSc2ncc(-c3ccc(F)cc3)n2Cc2ccco2)ccc1C | inactive |
| OCCC1CN(Cc2ccon2)CCN1CCc1ccccc1 (stereo not given) | inactive |
| CN(C)CCCNc1nc(-c2ccc(Cl)cc2)nc2ccccc12 | active: 10.4 µM |
| COc1ccccc1-c1c(C)oc2c(CN3CCCC(C)C3)c(O)ccc2c1=O (stereo not given) | active: 13.1 µM |
| Oc1ccc(/C=N/Nc2cc(N3CCCC3)nc(N3CCCC3)n2)cc1O | inconclusive [inhibitor, single point] |

| SMILES | Potency |
| --- | --- |
| O=C(Nc1cccc([N+](=O)[O-])c1)c1ccc2ccccc2c1O | inactive |
| N#Cc1ccccc1CN1C(=O)NC(Cc2c[nH]c3ccccc23)C1=O (stereo not given) | inconclusive [inhibitor, single point] |
| CC1CCC/C(=C(\C#N)c2nc(-c3cc4ccccc4oc3=O)cs2)C1 (stereo not given) | inactive |
| CCN(CC)c1ccc(-c2nn3c(-c4ccccc4OC)nnc3s2)cc1 | active: 2.62 µM |
| CCCOC(=O)CSc1nc(N)c(C#N)c(CC)c1C#N | inconclusive [inhibitor, single point] |
| c1ccc(C[C@H]2CN=C(Nc3ccccc3)N2CC2CCC2)cc1 | inconclusive [inhibitor, partial curve, poor fit] |
| CC(C)C1Cc2c(sc3c2c(=O)n(Cc2ccccc2)c2nncn32)CO1 (stereo not given) | inconclusive [inhibitor, single point] |
| CC(=O)N1Cc2cc([N+](=O)[O-])ccc2Oc2ccccc21 | inactive |
| Cc1onc(-c2c(Cl)cccc2Cl)c1-c1nnc(-c2ccc(Cl)cc2)o1 | inconclusive [inhibitor, partial curve, poor fit] |
| CCOc1ccc(CCNC(=O)COC(=O)c2cc(S(=O)(=O)N3CCOCC3)ccc2F)cc1OCC | inconclusive [inhibitor, single point] |
| Cc1ccc(OCc2nc(-c3cccnc3)no2)cc1C | inactive |
| CCOc1ccc2nc(SC(CC)C(=O)Nc3cc(C)on3)sc2c1 (stereo not given) | inconclusive [inhibitor, single point] |
| Cc1ccccc1C(=O)N1CCC(C(=O)OCc2nc(N)nc(Nc3ccccc3)n2)CC1 | inconclusive [inhibitor, single point] |
| CCOc1ccc(OCCOC(=O)CN2C(=O)NC3(CCCC3)C2=O)cc1 | inactive |
| FC(F)(F)c1ccccc1/C=N/n1c(COc2ccccc2)n[nH]c1=S | inactive |
| Cc1ccc2c(c1)nnn2C1CCN(C(=O)Nc2ccccc2C)CC1 | inconclusive [inhibitor, partial curve, poor fit] |
| COc1ccc(C2CC(c3ccc4ccccc4c3)=NN2C(=O)CNC2CCCCC2)cc1 (stereo not given) | inconclusive [inhibitor, single point] |
| CCOC(=O)c1c(S(=O)(=O)NCC(=O)Nc2ccc(F)cc2)c(C)n(C)c1C | inactive |
| COc1ccc(Cc2noc(-c3ccc([N+](=O)[O-])cc3)n2)cc1OC | inactive |
| CC(C)CN=Cc1c(O)c([N+](=O)[O-])cc2oc3c(c12)CCCC3 | inconclusive [inhibitor, single point] |
| COCc1cc(C)nc(SCc2ccc(Cl)cc2)c1C#N | inconclusive [inhibitor, single point] |
| O=C(Nc1ccccc1)Nc1ccc(Br)c(Cl)c1 | inconclusive [inhibitor, single point] |
| O=S(=O)(c1ccc(F)cc1)N1CCN(C(=S)NCc2ccccc2)CC1 | inconclusive [inhibitor, full curve, poor fit] |
| CC(C)(C)NC(=O)CSc1nc(-c2ccccc2)c(-c2ccccc2)[nH]1 | inconclusive [inhibitor, partial curve] |

| SMILES | Potency |
| --- | --- |
| C[C@H](NC(=O)c1[nH]cnc1C(=O)Nc1ccccc1)C(=O)OC(C)(C)C | inconclusive [inhibitor, single point] |
| CCOc1ccccc1NC(=S)NC(=O)C1CC1 | active: 5.22 µM |
| CC(OC(=O)c1cc(=O)[nH]c2ccccc12)C(=O)NC1CCCC1 (stereo not given) | inactive |
| COc1ccc(CNC(=O)C2CCN(c3nc(-c4ccccc4)nc4c3CCC4)CC2)cc1 | active: 1.85 µM |
| CCOC(=O)C1(CCCc2ccccc2)CCN(C(=O)C(C)n2cncn2)CC1 (stereo not given) | inconclusive [inhibitor, full curve, poor fit] |
| Cc1ccc(C)c(S(=O)(=O)NCc2cccnc2)c1 | inconclusive [inhibitor, single point] |
| CCN(CCCNC(=O)CN1C(=O)COc2ccc(S(=O)(=O)N3CCC(C)CC3)cc21)Cc1ccccc1 | inactive |
| COc1ccc(NC(=O)CC(c2ccc(F)cc2)c2ccc(OC(C)C)cc2)cc1 (stereo not given) | inconclusive [inhibitor, partial curve, poor fit] |
| CCO/C(C)=N/n1c2nc3ccccc3nc2c2c(=O)n(C3CCCC3)c(C)nc21 | inconclusive [inhibitor, full curve, poor fit] |
| CC12CCC(=O)N1C(C(=O)N1CCN(S(=O)(=O)c3cccc(Cl)c3)CC1)CS2 (stereo not given) | inconclusive [inhibitor, single point] |
| CCc1ccccc1N(CC)C(=O)c1cn(CC)c(=O)c2cc(OC)c(OC)cc12 | inconclusive [inhibitor, partial curve] |
| CCCn1c(C)cc(C(=O)CSc2nc3nc(C)cc(C)n3n2)c1C | inconclusive [inhibitor, single point] |
| O=C(Nc1cccnc1Cl)c1cc(-c2ccccc2O)on1 | inconclusive [inhibitor, full curve, poor fit] |
| Cc1cc2ccccc2n1CCNC(=O)COc1ccccc1 | inconclusive [inhibitor, single point] |
| N#CC(=C1CCCC1)c1nc(-c2ccccc2O)cs1 | inactive |
| O=C(N/N=C/c1ccc([N+](=O)[O-])o1)c1ccc(NS(=O)(=O)c2cccs2)cc1 | active: 3.7 µM |
| COC(=O)c1ccc(-n2cc(-c3ccc(OC)cc3)[nH]c2=S)cc1 | inconclusive [inhibitor, single point] |
| COc1ccc(-c2[nH]c(-c3ccc(C)cc3)nc2SCC(=O)NC2CCCC2)cc1 | inconclusive [inhibitor, partial curve, poor fit] |
| CC(Sc1nnc(-c2ccc(Cl)cc2Cl)n1Cc1ccccc1)C(=O)Nc1nccs1 (stereo not given) | inconclusive [inhibitor, partial curve, poor fit] |
| COc1ccc(N2CC(C(=O)NCCN3C(=O)S/C(=C\c4cccnc4)C3=O)CC2=O)c(OC)c1 (stereo not given) | inconclusive [inhibitor, single point] |
| COc1ccc2c(c1)-c1c(ssc1=S)C(C)(C)N2S(=O)(=O)c1ccc(C)cc1 | inconclusive [inhibitor, single point] |
| CC(C)n1c(=O)c(C=Nc2ccc(F)cc2)c(O)n(Cc2ccco2)c1=O | active: 14.7 µM |

— PubChem BioAssay AID504832 (National Center for Advancing Translational Sciences (NCATS), 2011)
